# Data from publication PMC12040169 (PLOS Biology, 2025).
# Some of the results follow.
# Test system: T1, C. trachomatis L2/434/Bu expressing GFP (CTL2-GFP)
# T1 construct: L2/434/Bu GFP intracellular growth in HeLa cells
# Set-up: species or system HeLa; C. trachomatis total inclusion area by high-content imaging, normalised to DMSO
# Conditions: total inclusion area; 28.5 h, 10 µM; inhibitor
# Outline: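 Post-fluorescence-read fixation, DNA staining with Hoechst and high-content imaging; GFP inclusion area and number per well, and nuclei counts, used as proxies for bacterial growth and host viability.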
row,SMILES,% of control remaining
1,c1ccc(OCCOc2nccnc2-c2ccc3c(c2)OCO3)cc1 [CBK106714],94.9355
2,OCC1CCCN1c1cncc(-c2cccc3ccccc23)n1 (centres unmarked) [CBK065509],110.106
3,COc1ccc(NC(=O)[C@@H]2C=CCN2C(=O)C2CC2)cc1 [CBK284277],63.5117
4,CCc1nc2ccccc2n1CC(=O)N(Cc1cccnc1)C1CC1 [CBK304064],37.3374
5,COc1cc(C(=O)Nc2ccc3[nH]ccc3c2)cc(OC)c1OC [CBK159696],110.12
6,CCOC(=O)N1CCC(NC(=O)N2CCN(c3cc(C(F)(F)F)ccn3)CC2)CC1 [CBK162353],30.6259
7,Cn1c(SCc2cccnc2)nnc1-c1cccs1 [CBK067706],39.9842
8,CCC(C)c1ccc(OCC(=O)Nc2ccc3[nH]c(=O)[nH]c3c2)cc1 (centres unmarked) [CBK266911],93.4045
9,O=C(Cn1cnnn1)NCc1cccnc1OCC(F)(F)F [CBK306467],67.2594
10,Cc1ccc(S(=O)(=O)NC(C)(C)CSc2ccccn2)cc1 [CBK266360],132.666
11,CCN(CC)CCNC(=O)N1CCN(c2ccccc2)CC1 [CBK155202],77.1333
12,O=C(Cn1cnnn1)N1CCc2ccccc2C1 [CBK200335],107.742
13,NC(=O)c1ccccc1NC(=O)CCSc1ccc([N+](=O)[O-])cc1Cl [CBK266396],104.883
14,Cc1ccc(F)c(OC2(C(=O)O)CCN(Cc3cnc(C)nc3)CC2)c1 [CBK306860],71.7514
15,O=C(CN1C(=O)c2ccncc2C1=O)Nc1ccccn1 [CBK288624],108.229
16,Cc1nc2ccccc2n1CC(=O)N(CCC#N)Cc1ccco1 [CBK306323],76.5661
17,Cc1ccc2c(c1)c(=O)cc(C(F)(F)F)n2CCNC(=O)C1CC1 [CBK284831],114.2
18,CCN(CC)CCn1c(NC(=O)CCC2CCNC2)nc2ccccc21 (centres unmarked) [CBK304693],84.7737
19,Cc1nn(C)cc1C(=O)N1CCC(c2cc3c(C)cccc3cn2)CC1 [CBK282231],114.842
20,Cc1cc(NC(=O)N2CCN(CCNC(=O)C3CCCC3)CC2)no1 [CBK305064],83.5451
21,COc1ccc(C(=O)N2CCN(Cc3ccc(SC)cc3)CC2)cc1 [CBK058613],53.9136
22,COc1ccc(C)cc1NC(=O)C1CC(=O)Nc2ncnn21 (centres unmarked) [CBK270274],86.1947
23,Oc1ccc(-c2n[nH]c(=S)n2-c2ccccc2)cc1 [CBK014887],59.356
